Experimental data from paper PMC9911399, “Two distinct binding modes provide the RNA-binding protein RbFox with extraordinary sequence specificity”.
Positions count from the first letter of the chain named. The list shows a part of the results.

T1: RBFOX1 RRM RbFoxmut (Fox-RRM*) (Homo sapiens, UniProt Q9NWB1 109-208, R118D;E147R;N151S;E152T)
T1 sequence: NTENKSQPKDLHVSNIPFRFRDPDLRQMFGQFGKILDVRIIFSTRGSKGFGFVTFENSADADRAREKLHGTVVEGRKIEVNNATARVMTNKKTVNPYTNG

B1: GAUAUAG (DNA:RNA)
RNA: GGGAGACCGGAAUUCAGAUUGUCCGAUAUAGUUAAAUCCCGUCGUAGCCACCA
DNA 1: CAATCTGAATTCCGGTCTCCC
DNA 2: TGGTGGCTACGACGGGATT
B2: AUAAUGC (DNA:RNA)
RNA: B1 RNA with G25A, A26U, U27A, A30G, G31C
DNA 1: CAATCTGAATTCCGGTCTCCC
DNA 2: TGGTGGCTACGACGGGATT
B3: AAGAGAU (DNA:RNA)
RNA: B1 RNA with G25A, U27G, U29G, G31U
DNA 1: CAATCTGAATTCCGGTCTCCC
DNA 2: TGGTGGCTACGACGGGATT
B4: GAAUACC (DNA:RNA)
RNA: B1 RNA with U27A, A28U, U29A, A30C, G31C
DNA 1: CAATCTGAATTCCGGTCTCCC
DNA 2: TGGTGGCTACGACGGGATT
B5: CAAUCUC (DNA:RNA)
RNA: B1 RNA with G25C, U27A, A28U, U29C, A30U, G31C
DNA 1: CAATCTGAATTCCGGTCTCCC
DNA 2: TGGTGGCTACGACGGGATT
B6: UGGAGAA (DNA:RNA)
RNA: B1 RNA with G25U, A26G, U27G, U29G, G31A
DNA 1: CAATCTGAATTCCGGTCTCCC
DNA 2: TGGTGGCTACGACGGGATT
B7: AUCGAAA (DNA:RNA)
RNA: B1 RNA with G25A, A26U, U27C, A28G, U29A, G31A
DNA 1: CAATCTGAATTCCGGTCTCCC
DNA 2: TGGTGGCTACGACGGGATT
B8: GCCAACC (DNA:RNA)
RNA: B1 RNA with A26C, U27C, U29A, A30C, G31C
DNA 1: CAATCTGAATTCCGGTCTCCC
DNA 2: TGGTGGCTACGACGGGATT
B9: GGAAAUC (DNA:RNA)
RNA: B1 RNA with A26G, U27A, U29A, A30U, G31C
DNA 1: CAATCTGAATTCCGGTCTCCC
DNA 2: TGGTGGCTACGACGGGATT
B10: CGGCCUG (DNA:RNA)
RNA: B1 RNA with G25C, A26G, U27G, A28C, U29C, A30U
DNA 1: CAATCTGAATTCCGGTCTCCC
DNA 2: TGGTGGCTACGACGGGATT
B11: AAACCUA (DNA:RNA)
RNA: B1 RNA with G25A, U27A, A28C, U29C, A30U, G31A
DNA 1: CAATCTGAATTCCGGTCTCCC
DNA 2: TGGTGGCTACGACGGGATT
B12: UACUGCU (DNA:RNA)
RNA: B1 RNA with G25U, U27C, A28U, U29G, A30C, G31U
DNA 1: CAATCTGAATTCCGGTCTCCC
DNA 2: TGGTGGCTACGACGGGATT
B13: CGCUCCA (DNA:RNA)
RNA: GGGAGACCGGAAUUCAGAUUGUCCCGCUCCAUUAAAUCCCGUCGUAGCCACCA
DNA 1: CAATCTGAATTCCGGTCTCCC
DNA 2: TGGTGGCTACGACGGGATT
B14: AACUGCG (DNA:RNA)
RNA: B13 RNA with C25A, G26A, C29G, A31G
DNA 1: CAATCTGAATTCCGGTCTCCC
DNA 2: TGGTGGCTACGACGGGATT
B15: CGAUCCC (DNA:RNA)
RNA: B13 RNA with C27A, A31C
DNA 1: CAATCTGAATTCCGGTCTCCC
DNA 2: TGGTGGCTACGACGGGATT
B16: UGGUAGA (DNA:RNA)
RNA: B13 RNA with C25U, C27G, C29A, C30G
DNA 1: CAATCTGAATTCCGGTCTCCC
DNA 2: TGGTGGCTACGACGGGATT
B17: GAACGAU (DNA:RNA)
RNA: B1 RNA with U27A, A28C, U29G, G31U
DNA 1: CAATCTGAATTCCGGTCTCCC
DNA 2: TGGTGGCTACGACGGGATT
B18: GCCUUGU (DNA:RNA)
RNA: B13 RNA with C25G, G26C, C29U, C30G, A31U
DNA 1: CAATCTGAATTCCGGTCTCCC
DNA 2: TGGTGGCTACGACGGGATT
B19: AAGGCUA (DNA:RNA)
RNA: B13 RNA with C25A, G26A, C27G, U28G, C30U
DNA 1: CAATCTGAATTCCGGTCTCCC
DNA 2: TGGTGGCTACGACGGGATT
B20: CGUCUGG (DNA:RNA)
RNA: B1 RNA with G25C, A26G, A28C, A30G
DNA 1: CAATCTGAATTCCGGTCTCCC
DNA 2: TGGTGGCTACGACGGGATT
B21: GCCUAGU (DNA:RNA)
RNA: B13 RNA with C25G, G26C, C29A, C30G, A31U
DNA 1: CAATCTGAATTCCGGTCTCCC
DNA 2: TGGTGGCTACGACGGGATT
B22: CCACUCA (DNA:RNA)
RNA: B13 RNA with G26C, C27A, U28C, C29U
DNA 1: CAATCTGAATTCCGGTCTCCC
DNA 2: TGGTGGCTACGACGGGATT
B23: CUGCACA (DNA:RNA)
RNA: B13 RNA with G26U, C27G, U28C, C29A
DNA 1: CAATCTGAATTCCGGTCTCCC
DNA 2: TGGTGGCTACGACGGGATT
B24: GGUCCUU (DNA:RNA)
RNA: B13 RNA with C25G, C27U, U28C, C30U, A31U
DNA 1: CAATCTGAATTCCGGTCTCCC
DNA 2: TGGTGGCTACGACGGGATT
B25: GUGUAAC (DNA:RNA)
RNA: B1 RNA with A26U, U27G, A28U, U29A, G31C
DNA 1: CAATCTGAATTCCGGTCTCCC
DNA 2: TGGTGGCTACGACGGGATT
B26: ACGUAAG (DNA:RNA)
RNA: B1 RNA with G25A, A26C, U27G, A28U, U29A
DNA 1: CAATCTGAATTCCGGTCTCCC
DNA 2: TGGTGGCTACGACGGGATT
B27: CGCUUCG (DNA:RNA)
RNA: B13 RNA with C29U, A31G
DNA 1: CAATCTGAATTCCGGTCTCCC
DNA 2: TGGTGGCTACGACGGGATT
B28: CGCCAGA (DNA:RNA)
RNA: B13 RNA with U28C, C29A, C30G
DNA 1: CAATCTGAATTCCGGTCTCCC
DNA 2: TGGTGGCTACGACGGGATT
B29: ACCGCCA (DNA:RNA)
RNA: B13 RNA with C25A, G26C, U28G
DNA 1: CAATCTGAATTCCGGTCTCCC
DNA 2: TGGTGGCTACGACGGGATT
B30: ACAACAA (DNA:RNA)
RNA: B13 RNA with C25A, G26C, C27A, U28A, C30A
DNA 1: CAATCTGAATTCCGGTCTCCC
DNA 2: TGGTGGCTACGACGGGATT
B31: UGAUAGA (DNA:RNA)
RNA: B13 RNA with C25U, C27A, C29A, C30G
DNA 1: CAATCTGAATTCCGGTCTCCC
DNA 2: TGGTGGCTACGACGGGATT

What follows are binders tested against T1, RBFOX1 RRM RbFoxmut (Fox-RRM*) (assay: EMSA; HiTS-Eq, 1 nM pool, 10 min; buffer printed only for the single-RNA assays: 10 mM Tris pH 7.5, 150 mM NaCl, 3.4 mM EDTA, 0.001% NP-40, 30 C). Conditions: tags: His6 N-terminal (pET28a); label: 5' 32P.
In short: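 Purified RbFox RRM, wild type or mutant, was incubated for 10 min in 50 µL with 1 nM of a 5′-radiolabelled RNA pool carrying 7 randomized nucleotides, whose flanks were annealed to DNA oligonucleotides, over a series of increasing protein concentrations. Unbound RNA was resolved on 8% native PAGE, cut out, reverse-transcribed, barcoded by PCR and sequenced on an Illumina HiSeq 2500. Relative association constants were derived from changes in read counts for each RNA species versus the control reaction and normalised to the cognate motif.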

Row | Binder | binding signal
1 | B1 | 0.114 KA relative to UGCAUGU
2 | B2 | 0.0927 KA relative to UGCAUGU
3 | B3 | 0.079 KA relative to UGCAUGU
4 | B4 | 0.0425 KA relative to UGCAUGU
5 | B5 | 0.0604 KA relative to UGCAUGU
6 | B6 | 0.0999 KA relative to UGCAUGU
7 | B7 | 0.0923 KA relative to UGCAUGU
8 | B8 | 0.0428 KA relative to UGCAUGU
9 | B9 | 0.0872 KA relative to UGCAUGU
10 | B10 | 0.266 KA relative to UGCAUGU
11 | B11 | 0.0902 KA relative to UGCAUGU
12 | B12 | 0.109 KA relative to UGCAUGU
13 | B13 | 0.0681 KA relative to UGCAUGU
14 | B14 | 0.0952 KA relative to UGCAUGU
15 | B15 | 0.0671 KA relative to UGCAUGU
16 | B16 | 0.128 KA relative to UGCAUGU

Row | Binder | binding signal
17 | B17 | 0.166 KA relative to UGCAUGU
18 | B18 | 0.714 KA relative to UGCAUGU
19 | B19 | 0.12 KA relative to UGCAUGU
20 | B20 | 0.128 KA relative to UGCAUGU
21 | B21 | 0.112 KA relative to UGCAUGU
22 | B22 | 0.118 KA relative to UGCAUGU
23 | B23 | 0.0799 KA relative to UGCAUGU
24 | B24 | 0.0718 KA relative to UGCAUGU
25 | B25 | 0.0733 KA relative to UGCAUGU
26 | B26 | 0.133 KA relative to UGCAUGU
27 | B27 | 0.16 KA relative to UGCAUGU
28 | B28 | 0.094 KA relative to UGCAUGU
29 | B29 | 0.106 KA relative to UGCAUGU
30 | B30 | 0.0732 KA relative to UGCAUGU
31 | B31 | 0.0949 KA relative to UGCAUGU
